# Measurements from PubChem BioAssay AID504332 (National Center for Advancing Translational Sciences (NCATS), 2011).
# Out of some 350,000 compounds screened, about 31,000 (8.9%) were called active. The inconclusive results got no clear call from the source; some entries with a clear call stand among them for comparison. Calls come from the whole dose curve; as a rule, active = well fitted inhibition curve with a large enough effect; inconclusive = small, poorly fitted or top-dose-only effect; inactive = no such curve, though single readings can be large or run the other way. Potencies beside an inconclusive call are fits to weak or partial responses and may not hold up.
# Target: Histone-lysine N-methyltransferase EHMT2 (Homo sapiens) (UniProt Q96KQ7)
# UniProt Q96KQ7, sequence (Q96KQ7 whole entry, looked up): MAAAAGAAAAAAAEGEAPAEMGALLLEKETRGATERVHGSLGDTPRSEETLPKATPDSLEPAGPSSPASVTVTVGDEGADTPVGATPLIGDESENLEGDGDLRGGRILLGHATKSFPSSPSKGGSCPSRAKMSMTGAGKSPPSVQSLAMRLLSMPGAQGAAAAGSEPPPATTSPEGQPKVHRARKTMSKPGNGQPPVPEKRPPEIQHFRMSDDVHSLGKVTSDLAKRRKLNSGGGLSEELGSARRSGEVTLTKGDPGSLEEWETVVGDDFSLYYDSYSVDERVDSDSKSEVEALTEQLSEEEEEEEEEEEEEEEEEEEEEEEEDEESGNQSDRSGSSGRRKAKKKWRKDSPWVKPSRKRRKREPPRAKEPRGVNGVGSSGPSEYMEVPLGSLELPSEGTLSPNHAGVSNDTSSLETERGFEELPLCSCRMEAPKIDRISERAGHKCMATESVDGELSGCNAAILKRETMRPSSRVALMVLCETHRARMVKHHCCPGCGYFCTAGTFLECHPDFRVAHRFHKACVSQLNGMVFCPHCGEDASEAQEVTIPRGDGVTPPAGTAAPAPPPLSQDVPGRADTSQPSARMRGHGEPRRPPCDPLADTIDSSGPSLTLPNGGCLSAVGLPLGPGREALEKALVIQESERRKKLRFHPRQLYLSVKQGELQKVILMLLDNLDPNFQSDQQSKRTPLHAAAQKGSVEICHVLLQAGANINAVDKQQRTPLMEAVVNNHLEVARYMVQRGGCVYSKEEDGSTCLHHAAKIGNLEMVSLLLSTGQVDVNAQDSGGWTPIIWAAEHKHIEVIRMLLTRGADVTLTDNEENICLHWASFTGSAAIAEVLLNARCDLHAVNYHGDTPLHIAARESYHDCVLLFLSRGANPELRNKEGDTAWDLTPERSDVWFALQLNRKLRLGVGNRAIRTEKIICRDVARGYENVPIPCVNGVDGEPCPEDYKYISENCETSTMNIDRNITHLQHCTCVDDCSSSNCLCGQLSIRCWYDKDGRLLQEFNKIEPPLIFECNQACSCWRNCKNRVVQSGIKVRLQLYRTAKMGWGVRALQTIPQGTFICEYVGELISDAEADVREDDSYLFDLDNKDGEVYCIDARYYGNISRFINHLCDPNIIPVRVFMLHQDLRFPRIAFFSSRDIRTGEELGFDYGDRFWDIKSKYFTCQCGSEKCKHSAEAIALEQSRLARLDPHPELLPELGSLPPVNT
# Test: qHTS Assay for Inhibitors of Histone Lysine Methyltransferase G9a; note: nearly all actives have a fitted effect of over 75% in size
# Details: G9a H3K9 monomethylation, AlphaScreen, 2 h; activity, negative = inhibition: at 59 µM (top of the series) unless noted
# How it was run: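 Step 1: enzyme (final 20 nM) with compound, 15 min RT. Step 2: substrate peptide 500 nM and SAM 20 uM, 2 h RT. Step 3: anti-H3K9me1 antibody and AlphaScreen beads, 10 min, then plate read.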
# % is set by controls: 0 for no effect and ±100 for the full control effect; potency is the fitted concentration of half-maximal effect; tags give direction and shape of the fitted curve.
SMILES,Potency,"activity, negative = inhibition"
CCC(c1nnc(SCC(=O)Nc2cc(C)on2)o1)N(C)C (stereo unspecified),"inconclusive: 3.16 µM [inhibitor, single point]",
COC(=O)c1cc(=O)n(-c2ccccc2)c(=Nc2ccccc2)s1,"inconclusive: 79.4 µM [inhibitor, single point]",
C#CCOCCOCCOCCNc1nc(N2CCN(C(=O)C(Cc3ccc(O)cc3)n3cc(C(N)CC(C)C)nn3)CC2)nc(N2CCN(C(=O)C(Cc3ccc(O)cc3)n3cc(C(N)C(C)CC)nn3)CC2)n1 (stereo unspecified),,inconclusive: -70.6% [inhibitor]
Cn1c(=O)c2ncn(CC(=O)Nc3ccc(N4CCOCC4)cc3)c2n(C)c1=O,active: 14.1 µM,
O=C(CSc1ncnc2c1sc1ccccc12)Nc1ccc(Br)cc1,"inconclusive: 25.1 µM [inhibitor, single point]",
CCOC(=O)CC(=O)CSc1nc2c(c(C)c1C#N)CCC2,"inconclusive: 39.8 µM [inhibitor, partial curve, poor fit]",
COc1ccc(C2C(=O)N(C3CCCCCC3)CC(=O)N2Cc2ccc(C)cc2)cc1 (stereo unspecified),inactive,
COC(=O)[C@@H]1Cc2c([nH]c3ccccc23)C(C)N1C(=O)c1ccccc1 (stereo partly specified),"inconclusive: 70.8 µM [inhibitor, single point]",
Cc1sc(NC(=O)CSc2nc(O)cc(=O)[nH]2)nc1-c1ccccc1,"inconclusive: 89.1 µM [inhibitor, partial curve, poor fit]",
O=C(CSc1nc2c([nH]c3ccccc32)c(=O)n1-c1ccccc1)N1CCc2ccccc21,inactive,
Cc1ccc([N+](=O)[O-])c(OCCN2CCC(Cc3ccccc3)CC2)c1,"inconclusive: 3.98 µM [inhibitor, single point]",
Cc1cccc(Nc2nnc(SCC(=O)NC3CCCc4ccccc43)s2)c1C (stereo unspecified),"inconclusive: 35.5 µM [inhibitor, partial curve, poor fit]",
CC(C)c1ccc(NC(=O)C(=O)C2C(=O)Nc3ccccc32)cc1 (stereo unspecified),"inconclusive: 44.7 µM [inhibitor, partial curve]",
COc1cc(OC)cc(C(=O)Nc2cc3c(cc2N2CCCC2)n(C)c(=O)c(=O)n3C)c1,"inconclusive: 31.6 µM [inhibitor, single point]",
CN(C)CCCN(C(=O)c1cc2cc([N+](=O)[O-])ccc2s1)c1nc2cc3c(cc2s1)OCCO3,active: 20 µM,
CCOC(=O)c1sc(=S)n(-c2ccccc2)c1NC(C)=O,"inconclusive: 70.8 µM [inhibitor, single point]",
N#CC1=C2SCN(c3ccccc3)CN2C(=O)CC1c1c(Cl)cccc1Cl (stereo unspecified),active: 1.41 µM,
CCCN1CCC(=O)N([C@H](COc2ccccc2)c2ccccc2)CC1,active: 39.8 µM,
CSc1ccc(CCNC(=O)CCn2c(=O)c3cccn3c3ccc(F)cc32)cc1,inactive,
O=C(Nc1cccc(S(=O)(=O)N2CCCCC2)c1)c1ccc2ncsc2c1,"inconclusive: 44.7 µM [inhibitor, partial curve]",
CN(c1ccccc1)c1nc(N)c([N+](=O)[O-])c(NCc2ccco2)n1,"inconclusive: 35.5 µM [inhibitor, single point]",
Cc1c(C)n(CCCN(C)C)c2ncnc(NC3CCCCC3)c12,"inconclusive: 89.1 µM [inhibitor, single point]",

SMILES,Potency,"activity, negative = inhibition"
CCc1ccc2c(CN(C)Cc3ccccc3OC)cc(=O)oc2c1,"inconclusive: 79.4 µM [inhibitor, single point]",
CC1CCCCN1C(=S)NC(=O)c1ccccc1 (stereo unspecified),"inconclusive: 31.6 µM [inhibitor, single point]",
O=C(Oc1ccccc1Cl)C1CCN(C(=O)c2ccc(F)cc2)CC1,"inconclusive: 25.1 µM [inhibitor, partial curve, poor fit]",
CC(CN(C)C)C(C)(O)Cc1ccc(Cl)cc1 (stereo unspecified),inactive,
CCCCn1c(N)c(N(CC(C)C)C(=O)C2=NN(c3ccccc3)C(=O)CC2)c(=O)[nH]c1=O,"inconclusive: 39.8 µM [inhibitor, single point]",
COc1ccc(OC)c(Nc2nc(C3CC3)nc3c2nnn3Cc2ccccc2)c1,inactive,
CC(C)N(CCCNC(=O)Cn1c(=O)c2cccn2c2ccc(F)cc21)Cc1ccccc1,"inconclusive: 0.891 µM [inhibitor, full curve, poor fit]",
COc1cc(/C=C(\C#N)C(=O)c2c[nH]c3ccccc23)cc(OC)c1O,active: 11.2 µM,
COc1ccc(-n2nnnc2CNC(=O)C2CC(=O)N(c3ccc(Cl)cc3)C2)cc1 (stereo unspecified),"inconclusive: 63.1 µM [inhibitor, partial curve, poor fit]",
Cc1c(C)n(C(=O)CN2CCN(c3ccccc3)CC2)c2ccccc12,active: 50.1 µM,
Cc1ccc(N=Cc2sc(O)c3ccccc23)c(C)c1,active: 8.91 µM,
CCCCCCCNC(=O)c1ccc(N2CCC3(CC2)OCCO3)c([N+](=O)[O-])c1,"inconclusive: 56.2 µM [inhibitor, partial curve, poor fit]",
CN=c1scc(-c2ccc(Cl)cc2)n1C,inactive,
CCOc1ccc(NC(=O)CN(C)Cc2cc(=O)n3c(-c4ccccc4)csc3n2)cc1OCC,active: 50.1 µM,
COc1cccc(-n2c(SCC(N)=O)nnc2-c2c[nH]c3ccccc23)c1,"inconclusive: 89.1 µM [inhibitor, partial curve, poor fit]",
CC(NC(=O)C1CCN(C(=O)[C@@H]2Cc3ccccc3CN2)CC1)c1ccccc1 (stereo partly specified),"inconclusive: 89.1 µM [inhibitor, single point]",
O=S(=O)(c1ccc(Cl)cc1)c1nc(-c2ccco2)oc1SCc1ccc(F)cc1,"inconclusive: 11.2 µM [inhibitor, partial curve, poor fit]",
CCOC(=O)c1cc(S(=O)(=O)NCc2ccc(C)cc2)[nH]n1,active: 5.62 µM,
Oc1ccc(-c2csc(NCc3ccco3)n2)cc1,"inconclusive: 1.58 µM [inhibitor, single point]",
CCC(Cc1c(I)cc(I)c(O)c1I)C(=O)O (stereo unspecified),"inconclusive: 1.12 µM [inhibitor, full curve, poor fit]",
CCn1cc(S(=O)(=O)N2CCN(Cc3ccc(F)cc3)CC2)cn1,"inconclusive: 50.1 µM [inhibitor, partial curve, poor fit]",
COCCNCCCCOc1ccc(C)cc1[N+](=O)[O-],"inconclusive: 10 µM [inhibitor, partial curve, poor fit]",

SMILES,Potency,"activity, negative = inhibition"
CCn1c(-c2ccccc2)c[nH]c1=S,"inconclusive: 7.94 µM [inhibitor, full curve, poor fit]",
CC1CN(C(=O)c2ccc(-c3cccc(C(F)(F)F)c3)o2)CC(C)O1 (stereo unspecified),"inconclusive: 50.1 µM [inhibitor, partial curve]",
CC(=O)Nc1ccc(S(=O)(=O)NCCC(=O)NCc2ccncc2)cc1,,inactive: 10.8% [at 2.33 µM]
COc1ccc(-c2oc(NC(=O)c3ccc(C)cc3)c(C#N)c2-c2ccc(OC)cc2)cc1,"inconclusive: 3.16 µM [inhibitor, partial curve, poor fit]",
N#Cc1c(Cl)nsc1NC(=O)c1ccccc1,"inconclusive: 79.4 µM [inhibitor, single point]",
Cc1n[nH]c(C)c1CCCCOc1ccccc1F,"inconclusive: 89.1 µM [inhibitor, single point]",
CC(C)(C)C1CCc2nc(NC(=O)Cc3cn4ccsc4n3)sc2C1 (stereo unspecified),,inconclusive: -53.7% [inhibitor]
Fc1cccc(-n2ncc3c2ncn2nc(Cc4ccccc4)nc32)c1,inactive,
CC1CCCCC1N1CCN(C(=O)c2cccc(F)c2)CC1 (stereo unspecified),"inconclusive: 2.51 µM [inhibitor, partial curve, poor fit]",
CSCCCN1CCC(n2nccc2NC(=O)CCCc2ccccc2)CC1,"inconclusive: 89.1 µM [inhibitor, single point]",
Cc1ccccc1NS(=O)(=O)c1cc(C(=O)N2CCCC2)ccc1C,"inconclusive: 70.8 µM [inhibitor, single point]",
CCN1C(=O)CSC1=Nc1ccccc1Cl,inactive,
COc1ccc2c(C)c(C(=O)O)oc2c1,inactive,
O=[N+]([O-])c1cccc(/C=C/c2nc3ccc([N+](=O)[O-])cc3[nH]2)c1,"inconclusive: 89.1 µM [inhibitor, single point]",
Cc1ccc2nc3sc(C(=O)NCCCN(C)c4ccccc4)cc3cc2c1,"inconclusive: 7.08 µM [inhibitor, partial curve, poor fit]",
CC1=[N+]([O-])C(C)(C)C(C)N(O)C1=O (stereo unspecified),"inconclusive: 28.2 µM [inhibitor, partial curve, poor fit]",
C/C=C1/NN(CCCN2CCN(c3cccc(Cl)c3)CC2)C(=O)N1CCOc1ccccc1,"inconclusive: 14.1 µM [inhibitor, partial curve, poor fit]",
CCOC(=O)c1ccc(N=Nc2c(C)c(C#N)c(O)[nH]c2=O)cc1,"inconclusive: 79.4 µM [inhibitor, single point]",
CCOC(=O)c1cc2c(=O)[nH]c(C(Cl)(Cl)Cl)nc2o1,"inconclusive: 89.1 µM [inhibitor, single point]",
CC1=C(/C=C/C(=C/C=C/C(C)=C/C(=O)O)c2ccc(C)cc2)C(C)(C)CCC1,active: 22.4 µM,
CC(C)C(O)(C(=O)NNc1ccccc1)C(C)C,"inconclusive: 5.62 µM [inhibitor, partial curve, poor fit]",
COc1ccccc1C(=O)C1CCCN(C(=O)c2cn3cc(Cl)ccc3n2)C1 (stereo unspecified),active: 28.2 µM,
